This is one part of the list. At the low end of the ranking the order means little.
Each sequence was assayed against SIX1-Q177R homeodomain (UniProt Q15475) (assay: universal protein binding microarray). Conditions: Universal all-10-mer PBM (8x60K, AMADID 030236), 300 nM GST-tagged protein, Alexa Fluor 488 anti-GST; buffer, salt, pH and temperature not stated; high values mean tight binding; most listed sequences are background and not binding sites; double strand, one strand shown.
TGATGCAA gave a binding signal of -0.213 E-score. CTACATAG showed a binding signal of -0.153 E-score. ACATTAAG was tested, and the binding signal was -0.0981 E-score. With AACGACTC the binding signal was 0.128 E-score. Work on CTTCTCCA yielded a binding signal of -0.232 E-score. In the case of CGGATTCC, the binding signal is reported as 0.124 E-score. Sequence CCGGGCTC has a binding signal of -0.00791 E-score. With GGCCCACC the binding signal was -0.146 E-score. AGGGTTGC gave a binding signal of -0.114 E-score. In the case of ACCTTGAG, the binding signal is reported as -0.0157 E-score. CCTGCAAC showed a binding signal of 0.0553 E-score. Work on ATAGAGTG yielded a binding signal of 0.135 E-score. For TCCGGGCA, the binding signal was -0.0199 E-score. Work on CGATGGAA yielded a binding signal of -0.168 E-score. With AACTAATA the binding signal was -0.0757 E-score. For CATCGCCG, the binding signal was 0.0345 E-score. Sequence AATGTGGA has a binding signal of -0.084 E-score. For ATAGACAA, the binding signal was 0.00567 E-score. Sequence ATAATCGA has a binding signal of 0.0378 E-score. ACTTAGAG was tested, and the binding signal was 0.0563 E-score. AAACCACA was tested, and the binding signal was 0.216 E-score. ATTATCGG gave a binding signal of 0.0376 E-score. Sequence AGAAATTC has a binding signal of -0.0218 E-score. In the case of GATATGCC, the binding signal is reported as -0.26 E-score. For ACAGACGA, the binding signal was 0.0172 E-score. Sequence AGGTAGGA has a binding signal of -0.0607 E-score. In the case of CTCTTCGA, the binding signal is reported as -0.166 E-score. CAACTTAA showed a binding signal of -0.221 E-score. CTGACCTC showed a binding signal of 0.048 E-score. With ATCCTAAT the binding signal was -0.247 E-score. AATTAGTC showed a binding signal of -0.04 E-score. TCAACGGA showed a binding signal of -0.0392 E-score. TCGATCAA gave a binding signal of -0.216 E-score. Work on AGACAGTA yielded a binding signal of -0.088 E-score. CGATCTTC was tested, and the binding signal was -0.134 E-score. With GCAACACA the binding signal was 0.14 E-score. In the case of CCCCACTC, the binding signal is reported as 0.18 E-score. AGAACTAG gave a binding signal of -0.155 E-score. Work on AGCGTCAC yielded a binding signal of 0.0987 E-score. For GCCCATAC, the binding signal was 0.07 E-score. In the case of ATAGGATC, the binding signal is reported as -0.02 E-score. ATGTTACA was tested, and the binding signal was 0.177 E-score. For CCCCTGCG, the binding signal was 0.0624 E-score. GAACGACC was tested, and the binding signal was -0.0817 E-score. ATGTAATG gave a binding signal of -0.2 E-score. For GATAACCC, the binding signal was 0.19 E-score. In the case of GCCCCGGC, the binding signal is reported as -0.0482 E-score. For GACGAACC, the binding signal was -0.129 E-score. Work on AAGTCTAT yielded a binding signal of -0.245 E-score. CCCAGAGC gave a binding signal of -0.0687 E-score. CCATGCCG was tested, and the binding signal was -0.0786 E-score. For AAGCGGTG, the binding signal was 0.214 E-score. With GACACATA the binding signal was 0.234 E-score. With CTGCACAG the binding signal was -0.149 E-score. In the case of GACTTTGC, the binding signal is reported as -0.248 E-score. Sequence GTATGGCA has a binding signal of -0.17 E-score. For AGACACAT, the binding signal was 0.0906 E-score. With ACCGTCGG the binding signal was 0.0295 E-score. AGGTTGGA gave a binding signal of -0.0478 E-score. GACCGGTA gave a binding signal of -0.057 E-score. With ACAAATAA the binding signal was -0.0921 E-score. For CCTATCAA, the binding signal was -0.0763 E-score. For ACCTCTAC, the binding signal was 0.151 E-score. CATAAACG gave a binding signal of -0.0362 E-score. ATTGTGAC showed a binding signal of 0.119 E-score. In the case of GCCAAGGC, the binding signal is reported as -0.161 E-score. GATGTCGC was tested, and the binding signal was -0.29 E-score. With GCTATGCA the binding signal was -0.0598 E-score. CCCACTAA gave a binding signal of 0.124 E-score. AAGGAAAA gave a binding signal of -0.211 E-score. In the case of CATATCTC, the binding signal is reported as -0.228 E-score. CCCGCCAG was tested, and the binding signal was 0.024 E-score. ATGTCTAC showed a binding signal of 0.0116 E-score. Sequence AAGAGCTT has a binding signal of 0.0548 E-score. With CGACGAGC the binding signal was -0.138 E-score. GGGTCAAC showed a binding signal of 0.223 E-score. CTACTCCA showed a binding signal of 0.242 E-score. CGTGGCAC gave a binding signal of 0.0589 E-score. AGGCTATG showed a binding signal of 0.017 E-score. ACGAAACT gave a binding signal of -0.108 E-score. For CTCTGTTC, the binding signal was -0.0889 E-score. ATAGGCAC was tested, and the binding signal was -0.106 E-score. AAATACTG was tested, and the binding signal was -0.201 E-score. For GGACCATA, the binding signal was -0.238 E-score. With TCGCGAAA the binding signal was -0.105 E-score. With GACTGATA the binding signal was 0.045 E-score. Sequence CTCTGGCC has a binding signal of 0.0156 E-score. AGCGCGCG gave a binding signal of -0.103 E-score. For AGCACCCA, the binding signal was 0.159 E-score. In the case of AGCCCAGG, the binding signal is reported as -0.29 E-score. Sequence CAAAAGGC has a binding signal of -0.329 E-score. Work on GCCGCCCC yielded a binding signal of 0.066 E-score. For GGCGCTAA, the binding signal was -0.201 E-score. Work on GCATCCCA yielded a binding signal of -0.258 E-score. ACCACTCT was tested, and the binding signal was 0.0376 E-score. Sequence ACTGAGTA has a binding signal of -0.16 E-score. Work on CTTGTGAC yielded a binding signal of -0.0696 E-score. CTATTACA showed a binding signal of 0.215 E-score. With ACAGCCAA the binding signal was -0.166 E-score. With AACTAACC the binding signal was -0.0214 E-score. AGGGAGCC gave a binding signal of -0.108 E-score. Sequence AAAGAAGA has a binding signal of -0.0713 E-score. For AAGCATGT, the binding signal was -0.229 E-score. CAACGCGA was tested, and the binding signal was -0.0722 E-score. With TAGGCTCA the binding signal was -0.223 E-score. Work on AGAATCAC yielded a binding signal of -0.117 E-score. With CACATAAG the binding signal was -0.112 E-score. With GGCTTAAC the binding signal was 0.0735 E-score. Sequence AAAACTCA has a binding signal of -0.155 E-score. Sequence GTCGGACA has a binding signal of 0.101 E-score. ATCTCGCA showed a binding signal of -0.00201 E-score. For GCAATCCA, the binding signal was -0.158 E-score. CGCTGATA was tested, and the binding signal was 0.111 E-score. Sequence AGGTTCAA has a binding signal of 0.0388 E-score. In the case of CATCGCGA, the binding signal is reported as -0.11 E-score. With AGAACCAC the binding signal was -0.121 E-score. AAACTGAA showed a binding signal of -0.164 E-score. Work on CTATGGCA yielded a binding signal of -0.0793 E-score. With GACCTACC the binding signal was 0.0321 E-score. AGTATATA showed a binding signal of 0.119 E-score. CATAGGGA gave a binding signal of 0.0903 E-score. For CAGTCATG, the binding signal was -0.143 E-score. AATATCTA was tested, and the binding signal was -0.245 E-score. CTTAGCTC was tested, and the binding signal was -0.0536 E-score. CGATGCAC gave a binding signal of -0.0447 E-score. With CGTGACGA the binding signal was -0.112 E-score. AGATAGGG gave a binding signal of -0.0624 E-score. In the case of GCGATAGC, the binding signal is reported as -0.288 E-score. Work on GATTGGCA yielded a binding signal of -0.0742 E-score. For GAAATGGC, the binding signal was -0.294 E-score. With ATGAGGCG the binding signal was -0.012 E-score. Sequence ACCAGAAA has a binding signal of 0.0552 E-score. In the case of CTCGCCAC, the binding signal is reported as 0.0837 E-score. In the case of AGGTTCTG, the binding signal is reported as -0.103 E-score. CGATTCTA was tested, and the binding signal was -0.136 E-score. Sequence ATTAAGAA has a binding signal of -0.167 E-score. For AGTCTCGA, the binding signal was 0.00588 E-score. GTCAAATA was tested, and the binding signal was -0.1 E-score. Work on CTCGACAA yielded a binding signal of -0.174 E-score. CCTCTGAG was tested, and the binding signal was 0.0637 E-score. AAAAGGCG was tested, and the binding signal was -0.195 E-score. Work on AGGTCACA yielded a binding signal of 0.0031 E-score. For AGGAGGAC, the binding signal was 0.0214 E-score. AGAAGGCA showed a binding signal of -0.166 E-score. Sequence CACCCGTA has a binding signal of 0.274 E-score. Sequence TAAACCGA has a binding signal of -0.0276 E-score. Work on AGTTCAGC yielded a binding signal of -0.0777 E-score. For GCGGATCC, the binding signal was 0.0909 E-score. CCCTCTAG was tested, and the binding signal was 0.0327 E-score. CTTGGGAA gave a binding signal of -0.232 E-score. For CACCAGGC, the binding signal was 0.336 E-score. Work on GCTGTTCC yielded a binding signal of -0.23 E-score. In the case of AACTCACA, the binding signal is reported as 0.174 E-score. For ATAGCCAA, the binding signal was -0.0885 E-score. With AGTGCTCC the binding signal was -0.122 E-score. With CCTCCGTC the binding signal was -0.0215 E-score. Work on AAAGGGCA yielded a binding signal of -0.152 E-score. CCCCGCTA gave a binding signal of 0.199 E-score. CTTCATTA was tested, and the binding signal was -0.146 E-score. In the case of CTACGAAC, the binding signal is reported as 0.0786 E-score. With CTCCGTAA the binding signal was -0.0605 E-score. CAAAGTTA was tested, and the binding signal was -0.178 E-score. With CGACTTCA the binding signal was -0.124 E-score. In the case of CACCTCAA, the binding signal is reported as 0.173 E-score. Sequence AGCACGCG has a binding signal of -0.0022 E-score. For ACCTACTA, the binding signal was 0.0436 E-score. With CATCGAAA the binding signal was -0.0904 E-score. In the case of ACTACCAG, the binding signal is reported as 0.0534 E-score. Work on CCCAATAC yielded a binding signal of 0.17 E-score. AAAGGCTG gave a binding signal of 0.024 E-score. In the case of GACGACGA, the binding signal is reported as -0.18 E-score. With CATGAACC the binding signal was 0.0431 E-score.
